PubChem BioAssay AID652104 (National Center for Advancing Translational Sciences (NCATS), 2013)
About 7,200 (1.8%) of roughly 410,000 compounds were called active. This list was built around the results that the source calls inconclusive (neither active nor inactive); the mix of calls is not that of the screen. Calls follow the shape of the dose curve; as a rule, active = well fitted activation curve with a large enough effect; inconclusive = small, poorly fitted or top-dose-only effect, or another doubt; inactive = no such curve, though single readings can be large or run the other way. Potencies of inconclusive entries are left out as doubtful fits.

Test: qHTS of TDP-43 Inhibitors; also: nearly all actives have a fitted effect of over 50% in size; as to growth rescue (activation): % of control where 0% means no effect
Conditions: TDP-43 expressing yeast growth rescue, BacTiter-Glo, 24 h; growth rescue (activation): at 46.1 µM (top of the series) unless noted
Description: The goal of this project is to identify new chemical probes capable of reversing the toxicity associated with TDP-43 which is associated with frontotemporal lobar degeneration and amyotrophic lateral sclerosis. These compounds will provide a complementary approach to deciphering the tangled mechanisms of toxicity and protection that we have uncovered through genome-wide genetic screens and are beginning to uncover in a large-scale proteomics analysis with mass spectroscopy.
To this end, a miniaturized assay was developed to be screened against the Molecular Libraries Small Molecule Repository (MLSMR) to discover TDP-43 inhibitors. Please note that in the set-up this yeast-based assay compounds that inhibit as TDP-43, have a read-out as activators.
NIH Chemical Genomics Center [NCGC]
NIH Molecular Libraries Probe Centers Network [MLPCN]
Assay Submitter (PI): Susan Lindquist, Whitehead Institute/MIT
Dispense 2.5 microL yeast galactose medium per 1536-well plate, pin compound, dispense 2.5 microL TDP-43 expressing yeast in galactose medium at OD600=0.02 (pregrown in raffinose medium to mid-log phase) per well, incubate for 24 hr at 30 deg C, and cell growth will be measured using 5 microL of Bactiter/Glo reagent to entire plate and read using Luminescence Protocol in ViewLux.
Potency is read from the fitted curve at half-maximal effect; tags tell the direction and shape of the fitted curve.

SMILES | growth rescue (activation) | Potency
CC(=O)N1N=C(c2cccs2)CC1c1cccs1 (stereo not drawn) | inactive: 9.57% | –
COC(=O)c1ccc(COc2ccc(F)cc2)o1 | inactive: 22.7% | –
CCOc1ccc2c(c1)OC1(CCC(C)C1)CC2=O (stereo not drawn) | – | inconclusive [activator, single point]
Nc1ccc(Cn2ccc3c4c(N)nc(N)nc4ccc32)cc1 | – | inconclusive [activator, partial curve]
O=C(CCCNS(=O)(=O)c1cccc2nsnc12)N1CCCCC1 | inactive: -0.476% | –
O=C(NCCCN1CCC(Cc2ccccc2)CC1)C1CCC(=O)N1C1CCCC1 (stereo not drawn) | – | inconclusive [activator, partial curve, poor fit]
COc1cccc(C(=O)c2sc(NC(C)C)nc2N)c1 | inactive: 20% | –
O=C(CCCn1c(=O)c2cccn2c2ccc(F)cc21)NCCc1ccccc1 | inactive: 5.85% | –
CCOc1ccc(N2C(=O)/C(=C\c3ccc(OC)c(O)c3)S(=O)(=O)C2c2cccc([N+](=O)[O-])c2)cc1 (stereo not drawn) | – | inconclusive [activator, partial curve]
CC1CCCCC1NC(=O)COC(=O)/C=C/c1ccco1 (stereo not drawn) | – | inconclusive [activator, single point]
c1coc(CN2CNc3nc4ccccc4n3C2)c1 | inactive: 5.41% | –
COc1ccccc1-c1cc(C(F)(F)F)nc(N2CCN(c3ccccc3)CC2)n1 | inactive: 19.8% | –
CCn1cc(CCC(=O)NCc2ccc(F)cc2)c2ccccc21 | – | inconclusive [activator, partial curve]
Cc1cc(C)c(Cn2c(CCNC(=O)c3ccco3)nc3ccccc32)c(C)c1 | inactive: 22.1% | –
O=CNc1cc(-c2ccsc2)cn2c(-c3ccccc3)cnc12 | – | inconclusive [activator, single point]
O=C(N/N=C/c1coc2ccccc2c1=O)c1cc(O)cc(O)c1 | – | inconclusive [activator, single point]
OC(c1ccc(F)c(F)c1)c1nc(-c2cccs2)cs1 (stereo not drawn) | – | active: 22.4 µM
CC1=C(C(=O)Nc2cccnc2)C(c2cccc(O)c2)n2nc(SCc3ccccc3)nc2N1 (stereo not drawn) | inactive: 21.5% [at 9.22 µM] | –
O=c1c2oc3ccccc3c2n(Cc2cccc(F)c2)c(=O)n1Cc1ccco1 | inactive: -2.15% | –
CC(C)c1ccc2oc(-c3cc(NC(=O)c4cccs4)ccc3Cl)nc2c1 | – | inconclusive [activator, partial curve]
O=C(O)/C=C/C(=O)Nc1cc(F)ccc1F | – | inconclusive [activator, partial curve]
COc1cc(OC)c(NC(=O)c2ccc(Br)o2)cc1Cl | – | inconclusive [activator, single point]
O=C(CNC(=O)c1ccccc1Cl)NCCc1cccs1 | inactive: -1.24% | –
COCCNc1nc(Oc2ccccc2)c2sccc2n1 | – | inconclusive [activator, partial curve]
COc1ccc(C(=O)N2CCC(c3nc4ccccc4o3)CC2)cc1 | inactive: -8.9% | –

SMILES | growth rescue (activation) | Potency
COCC(=O)Nc1ccc2c(c1)[C@@H]1C[C@H](CC(=O)OC)O[C@H](CO)[C@@H]1O2 | – | inconclusive [activator, single point]
CC(C)(C)OC(=O)N1CCC(CC2CC(c3cccc(Br)c3)=NO2)(C(=O)O)CC1 (stereo not drawn) | – | inconclusive [activator, single point]
CC1CCc2c(sc(NC(=O)C3=COCCO3)c2C(N)=O)C1 (stereo not drawn) | – | inconclusive [activator, partial curve]
Fc1cccc(Cn2ccc(-c3ccc4c(c3)OCO4)n2)c1 | – | active: 12.6 µM
Cc1cccc(NC(=S)NCc2cccs2)c1C | – | inconclusive [activator, partial curve]
COc1ccc(OCCCC(=O)Nc2nc(-c3ccccn3)cs2)cc1 | – | active: 11.2 µM
CCOC(=O)C(=CNc1ccc(C(F)(F)F)cc1)C(=O)OCC | – | inconclusive [activator, partial curve]
COc1cc(/C=C\C(=O)OCn2nnc3ccccc3c2=O)cc(OC)c1OC | – | active: 20 µM
O=C(O)c1ccc(CSc2ccccn2)cc1 | – | inconclusive [activator, single point]
CC(C)(Sc1cc(C(C)(C)C)c(O)c(C(C)(C)C)c1)Sc1cc(C(C)(C)C)c(O)c(C(C)(C)C)c1 | inactive: 19.8% | –
O=C(/C=C/c1ccccc1Cl)c1cccnc1 | – | inconclusive [activator, single point]
CSCCC(NC(C)=O)C(=O)Oc1ccc2c3c(c(=O)oc2c1)CCCC3 (stereo not drawn) | – | inconclusive [activator, single point]
CCc1nc2ccccc2c(C(=O)OCC(=O)NC(=O)c2cccn2C)c1C | – | inconclusive [activator, partial curve]
Cc1ccccc1N(CC(=O)N1CCN(Cc2ccccc2)CC1)S(C)(=O)=O | inactive: 14.3% | –
CCOC(=O)C1(CC2CC2)CCN(Cc2cnc(-c3ccccc3C)nc2)CC1 | – | inconclusive [activator, single point]
CC(=O)N1c2ccc(C)cc2C(c2ccccc2)CC1C (stereo not drawn) | inconclusive: 39% [activator] | –
O=C(Nc1ccc(Cl)c([N+](=O)[O-])c1)c1ccco1 | – | inconclusive [activator, single point]
O=C(NCCc1csc(-c2cccnc2)n1)c1ccc(Cl)cc1 | – | inconclusive [activator, single point]
CC(NC(=O)OCc1ccccc1)C(=O)Oc1cc2oc(=O)cc(-c3ccccc3)c2cc1Cl (stereo not drawn) | – | active: 6.31 µM
Cc1cc(C)n(-c2nc3cc(Cl)c(Cl)cc3nc2Nc2ccc(F)cc2C)n1 | inactive: -0.962% | –
COC(=O)CN1C(=O)Nc2ccc(Br)cc2C1c1ccccc1 (stereo not drawn) | – | inconclusive [activator, partial curve, poor fit]
CCCCCCC(=O)N(O)C1CC(=O)N(c2ccc(Cl)cc2)C1=O (stereo not drawn) | inconclusive: -92.3% [activator] | –
Cc1nc(SC(C(N)=O)c2ccccc2)c(C#N)c(C)c1C (stereo not drawn) | inactive: 3.14% | –
Cc1ccccc1C(=O)N1CCC(C(=O)OCc2ccccc2Cl)CC1 | – | inconclusive [activator, single point]
CC(=O)Nc1nonc1-c1nnc(SCc2ccccc2C)n1C | inactive: 27% [at 9.22 µM] | –

SMILES | growth rescue (activation) | Potency
CC(C)Cn1c(=O)c2sccc2n2c(CCCC(=O)NCC(C)c3ccccc3)nnc12 (stereo not drawn) | inactive: 15.2% | –
O=C(CC[C@H]1O[C@@H](n2cnc3c(NC(=O)c4ccccc4)ncnc32)[C@H](O)[C@@H]1O)NCc1ccccn1 | – | inconclusive [activator, full curve, poor fit]
BrC(=C\c1ccccc1)/C=N/N1CCN(Cc2ccccc2)CC1 | – | inconclusive [activator, partial curve]
CN(/N=C/c1ccc2c(c1)OCO2)c1ccccc1 | – | inconclusive [activator, full curve, poor fit]
Cc1ccc(NS(=O)(=O)c2ccc3[nH]c4c(c3c2)CCCC4)c(C)c1 | – | inconclusive [activator, single point]
Cc1ccc(-c2nc3ccccn3c2Nc2c(C)cccc2C)o1 | – | inconclusive [activator, partial curve]
c1ccc(Cc2c(-c3ccco3)nc3c4ccccc4ccn23)cc1 | – | active: 35.5 µM
O=C(O)CCc1ccc(-c2ccc(Br)cc2)o1 | – | active: 3.16 µM
CCOc1ccccc1N1CC(c2nc3ccccc3n2CCOc2ccc(OC)cc2)CC1=O (stereo not drawn) | – | inconclusive [activator, full curve]
CCOC(=O)C1=C(N)Oc2ccc3ccccc3c2C1c1ccc(O)c(OC)c1 (stereo not drawn) | – | inconclusive [activator, full curve, poor fit]
O=C(Nc1ccccc1)c1cc(Cl)nc2ccccc12 | – | inconclusive [activator, partial curve, poor fit]
CCOC(=O)c1c(Nc2cccc(O)c2)nnc(-c2ccccc2)c1-c1ccccc1 | – | inconclusive [activator, partial curve]
COc1ccc(NC(=O)c2ccc(S(=O)(=O)NCc3cccnc3)cc2)cc1 | inactive: 4.06% | –
COc1ccc(-n2ncc3c(N(C)C4CCCCC4)ncnc32)cc1 | – | inconclusive [activator, single point]
COC(=O)c1sc(S(=O)(=O)Nc2ccc(C)cc2)c(C(=O)OC)c1C | – | active: 20 µM
CC(=O)c1ccc(NC2=NS(=O)(=O)c3ccccc32)cc1 | inactive: 10.3% | –
CS(=O)(=O)n1nc(-c2ccccc2)nc1NCc1ccco1 | – | inconclusive [activator, partial curve, poor fit]
N/C(=N\OC(=O)Cc1ccccc1)c1cccc(Br)c1 | – | inconclusive [activator, single point]
O=C(CSc1nc2ccccc2nc1Cc1ccc(F)cc1)Nc1ccc2c(c1)OCO2 | inactive: 12.1% | –
O=C(COc1cccc(F)c1)Nc1nc(-c2cccnc2)cs1 | – | inconclusive [activator, single point]
Cc1cc(C)c(C)c(S(=O)(=O)N2CCC(C(=O)N3CCN(c4ccc(F)cc4)CC3)CC2)c1C | – | inconclusive [activator, single point]
O=C(Nc1ccc(Cc2ccc(NC(=O)Nc3cccnc3)cc2)cc1)Nc1cccnc1 | inactive: 0% | –
CCC(CC)C(=O)N(C)c1c(C)nc2c(OCC(=O)N(C)C)cccn12 | – | inconclusive [activator, full curve, poor fit]
